Experimental data as given in PMC12136788.
The list shows a part of the results.

T1: UNK ZnF1-3 (human, UniProt Q9C0B0 31-174)
T1 sequence: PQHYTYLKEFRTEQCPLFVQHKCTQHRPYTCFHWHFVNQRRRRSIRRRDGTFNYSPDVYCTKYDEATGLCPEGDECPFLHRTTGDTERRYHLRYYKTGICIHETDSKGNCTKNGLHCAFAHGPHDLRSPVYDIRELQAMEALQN

B1: chr2:29004620:29004621:+_ENSG00000213639_ENST00000296122|hu_mus|FALSE|FALSE (ssRNA)
RNA: GGGAGUUCUACAGUCCGACGAUCCAAUUUAAUAUUAAAUCUUCGUUUACACUCAUCGUAGAAUCCAUAAAUGCGAUUGAUGCUAGCACACUCAUGGUUUCCUCUUAGAAGAAAGAAGUUCUCCGGGUAUUUGAUUUUGUAAGCCAACAGAGGAUUGAGCAUCA
B2: chr5:144470944:144470945:+_ENSMUSG00000018001_ENSMUST00000116456|mus_mus|FALSE|FALSE (ssRNA)
RNA: GGGAGUUCUACAGUCCGACGAUCAUAUACAUUGUAUAACACUGAAGAAAUUAAUACAUAUGUACAUUAUUUACAUAGUAACUAUUUAUUGUAAAUAGAAAUGUUUUCUAAGAUAAAAAGAAAUCACAACAUGGUUUCUGGUCUCAACAGAGGAUUGAGCAUCA
B3: chr3:176767854:176767855:-_ENSG00000177565_ENST00000430069|hu_hu|hu_hu_hu_mus_False|38_58 (ssRNA)
RNA: GGGAGUUCUACAGUCCGACGAUCGACAUCCUUGUUACUGGGCACGUCCUGCCCUCCUUCCCGUAUGCAGUGUCUAAGUACUAACUGCGUAGGGCCACUGGUGCUGUUCUCACUGAGGUUCCAGAUUCUUGCCGUGGAGUCUCCCAACAGAGGAUUGAGCAUCA
B4: chr15:99544167:99544168:+_ENSMUSG00000023018_ENSMUST00000023759|mus_hu|FALSE|FALSE (ssRNA)
RNA: GGGAGUUCUACAGUCCGACGAUCAGGGCUCAGCUGCCCCAAGGUUGUCCAGUGUCAACCUUUCAAGGGAGGGAAAAUGGCAGGAAGGGGAAGACGGGGAGAAAAUUCUGCUGUCCCCAGUGUAGAACAGGGAGGGAUUUGGGGCAACAGAGGAUUGAGCAUCA
B5: chr5:144935201:144935202:+_ENSMUSG00000038970_ENSMUST00000041804|mus_hu|FALSE|FALSE (ssRNA)
RNA: GGGAGUUCUACAGUCCGACGAUCCAUUAAGUCGAAUAUUUUUUGGUGACUGGGCAAAUCUUCCGAUUUGUCCACAUCAUUAAAUAUAUUGUUGAAAGGGCUCUCGGGGCCACUGGUCACGUGUAAGUCCCCUGGUAAGCUAGACAACAGAGGAUUGAGCAUCA
B6: chr16:75691255:75691256:+_ENSG00000166848_ENST00000300086|hu_hu|FALSE|FALSE (ssRNA)
RNA: GGGAGUUCUACAGUCCGACGAUCAAAGUUAUAUUUAUUUUCAACAAUGAAAACAACACAACAAAGUGGAGUCAAUCCACUAAUUUUUUAAAUCUAACACAAUGCUUAGCACAAACAAUACUCAAUAAAUAACACAUUAACCAACAACAGAGGAUUGAGCAUCA
B7: 71576936_71577056_1226_CDS_ENSG00000075292_ENST00000264447|human|control|control (ssRNA)
RNA: GGGAGUUCUACAGUCCGACGAUCACUCAUUGUCUGGCUAACUGUUUGGUUAAUGGAUUGGUUGACGGAUUUUAUGGGUUCAAGGACUGACUGUCCUCCUGAAAUGUGUAAGCCUGACAUCUUGGUUCCACUCUCAACUGAGAACAACAGAGGAUUGAGCAUCA
B8: chr3:131220538:131220539:-_ENSG00000114686_ENST00000264995|hu_hu|FALSE|FALSE (ssRNA)
RNA: GGGAGUUCUACAGUCCGACGAUCUUCUUCAGAAAGAUGCUCAUCCCACCAUGUACCACUCUUUCCAUGAAGACCUCUAACAAAAAGCCAGAUGUGUGUUCUGUUCCCCGGGCCCAGGGCAGCACCCAGGCCGUCCCCGAGUCGCAACAGAGGAUUGAGCAUCA
B9: chr12:105536279:105536280:+_ENSG00000136051_ENST00000332180|hu_mus|hu_hu_hu_mus_True|18_38 (ssRNA)
RNA: GGGAGUUCUACAGUCCGACGAUCAGCACUGAACAUGUAAUGUAAUCUGGCUGCAUCGACAGCAUUUUCAUAUACAUCAUCUAAAUAAAUCGGGAAGACAGCUCGAUGCCAGUAUAAAAAACAACAGUCACACUGUGCUUGGACCAACAGAGGAUUGAGCAUCA
B10: chrX:40531158:40531159:-_ENSG00000180182_ENST00000324817|hu_hu|motif|central (ssRNA)
RNA: GGGAGUUCUACAGUCCGACGAUCAUGCAGAUUUCCUGGAGACUGUGUGUGCAUCAUUGAGGGAGACUGAUUGACUGUGCGGUGAUAAGAUGUAGGGGGUGAAGUAAGAGGAUAAGCACCUGAUGUUCCUGGCUGCUUUGGAAACAACAGAGGAUUGAGCAUCA
B11: chr11:96688998:96688999:-_ENSMUSG00000038615_ENSMUST00000081775|mus_mus|FALSE|FALSE (ssRNA)
RNA: GGGAGUUCUACAGUCCGACGAUCCCACCCGAACCCCAAUCAGACUCAGCAGGAUGGUGAACUGGAGAAGUCCUUCCGUUAAAUAUUUCUUCAGAGAAAGCAUUGCUGAAGGACCAGAAUAUUUAUGCUUUUUUGUUUUUAAAUCAACAGAGGAUUGAGCAUCA
B12: chr1:29069144:29069145:+_ENSG00000198492_ENST00000541996|perfect_dup|motif|central (ssRNA)
RNA: GGGAGUUCUACAGUCCGACGAUCGAGAAGUCAAUCCCACUGGGAAAAAAAUUAAAACCAUGCUGACCAAGAAAUGGAGUGCGGCCGGGGGCUCCUGGUUGCCCAAACAUUGCAUCUGGUAGAAAGUGGGGCUCUCCGUUGCUCCAACAGAGGAUUGAGCAUCA
B13: 30003089_30008819_4271_CDS_ENSG00000104067_ENST00000400011|human|control|control (ssRNA)
RNA: GGGAGUUCUACAGUCCGACGAUCAGAUGGCUGGGCAUACUGCGAGGGCAAUGGAGGAGGAGGGGGAGUGGCCUGGAUGGGUUCAUAGCGUUUCUCGCCAAAUGAUCUAUCCACACCAUCAGCUUCAGGAGGCUUUCCCUUUGACAACAGAGGAUUGAGCAUCA
B14: chr4:62795864:62795865:+_ENSMUSG00000028358_ENSMUST00000107415|mus_mus|motif|central (ssRNA)
RNA: GGGAGUUCUACAGUCCGACGAUCGCCUCCCAGAAAUCACAUGUGAAAAGAAACCGAGUCCCCCAUAAGAUAAAAAAUUUGCGGAAGUAUUGUGAAAAAUGACGACAACAACAACAACAAAAUUGAGUGGAGAGUCAGCUAUGUCAACAGAGGAUUGAGCAUCA
B15: chr6:38652254:38652255:-_ENSG00000124767_ENST00000373365|hu_hu|hu_hu_hu_mus_False|18_98 (ssRNA)
RNA: GGGAGUUCUACAGUCCGACGAUCCGAGAACUUCAUAAUGGGAAAAUCAAGCUUCUGCAGGAGGGUCAGUCCAAGAACCCUCGUAUAAAAAUCCAGGGACUUCUUAGGAUCCUUAAUUCGUAGCAUGGUUUGCUGCAGUAGAAACAACAGAGGAUUGAGCAUCA
B16: chr12:16048344:16048345:+_ENSG00000023734_ENST00000419869|hu_hu|hu_hu_hu_mus_True|8_38 (ssRNA)
RNA: GGGAGUUCUACAGUCCGACGAUCAGAUCGUCCAUAAGUAAUAACCAAAAUCUCUCCUUCAGGAAUAUACUCCAUGCUGCUAACAGACAUAUUAAAAUUUAGAGAUUUCACUUCUGUCAUUGUGGCAUGAUCCCAAAGCCGAACCAACAGAGGAUUGAGCAUCA
B17: 108366600_108366720_658_CDS_ENSG00000106692_ENST00000223528|human|control|control (ssRNA)
RNA: GGGAGUUCUACAGUCCGACGAUCUUUCCUGUCAAUGUGUUCUUUAAGUCUCAAGUGGCCGUGCCAGAGGUAGUUGCCACUCCUCUCAUGAAAGACUACCAAGUGGAUCGCAUGAGUGGCCAGUUUGCAGAUAUAGUGCAGGGGCAACAGAGGAUUGAGCAUCA
B18: chr6:119774991:119774992:-_ENSMUSG00000030172_ENSMUST00000032279|mus_hu|FALSE|FALSE (ssRNA)
RNA: GGGAGUUCUACAGUCCGACGAUCGCCACCUCCAACACUGCUUCCCGAACUCCCUCCCGUACUGUUGGUUCGACGGUGACCCAAGCGAGGGGAACGUGGAAGCCUGGGUGAACGCCCAGGGCUCUGGCUGCUCGGCUCCACCUUCAACAGAGGAUUGAGCAUCA
B19: chr9:79619141:79619142:-_ENSMUSG00000032328_ENSMUST00000034878|mus_mus|motif|central (ssRNA)
RNA: GGGAGUUCUACAGUCCGACGAUCAAAUUAAAUGGUGAUGUCAGCAGUGUUACUACUGUUUCUAUAUUUAUGAUUAAUUACGGGCAGUACAACUCCCAGAAGGAAAGAGAUGGAUCCAAUAGUGAUGUAAGCAAUUCCCAAAAACAACAGAGGAUUGAGCAUCA
B20: chr16:91657502:91657503:+_ENSMUSG00000022961_ENSMUST00000114036|mus_mus|motif|central (ssRNA)
RNA: GGGAGUUCUACAGUCCGACGAUCUCUAGGUGCUAACCUGUAUGGCCUAGGUGCUAUCCUAUAGGACCUGGGUGCGGUUCGGUAGGGCCUAGGUGAUACCCUAUAGGGAUCCGGAGUUAGUCUGUAGGGAUCAUGGCCUAAUCUCAACAGAGGAUUGAGCAUCA
B21: chr4:144447494:144447495:+_ENSG00000153147_ENST00000283131|hu_mus|FALSE|FALSE (ssRNA)
RNA: GGGAGUUCUACAGUCCGACGAUCCCAGUUGUGCAAUGUAGACUUGGGAACCAAAACCAUAUGAGGACCAGGAAUAUUUCUAUAGUGUUUCAUGUAUCCAAGAAGAGAAAUUGUUUGAAGUGUCUUUCCCAAACCCAUUUCAUCCAACAGAGGAUUGAGCAUCA
B22: 36138157_36138277_3497_3pUTR_ENSG00000100320_ENST00000405409|human|control|control (ssRNA)
RNA: GGGAGUUCUACAGUCCGACGAUCAUACAACAAAAAUUGUCUUAACAGCAACAAACCAAACUUUGGCUUGGGGUGGGGGGACCCUUAAAAAUGGCCAGUGGACUGGGCAGUUGGUGUCCCCUUAUUCUCUGUCUUCCUCCCCAGCAACAGAGGAUUGAGCAUCA

target: T1, UNK ZnF1-3; experiment: nsRBNS (natural sequence RNA bind-n-seq); RBNS binding buffer (assumed for nsRBNS): 25 mM Tris pH 7.5, 150 mM KCl, 3 mM MgCl2, 0.01% Triton X-100, 500 ug/ml BSA, 20 U/ml SUPERase-In, 4 C; UNK is unkempt and MSI1 is Musashi-1; names of the RNAs are library labels; protein concentration not given here; high values mean tight binding

| Binder | binding signal [enrichment R] |
| --- | --- |
| B1 | 0.892 |
| B2 | 0.586 |
| B3 | 0.618 |
| B4 | 2.37 |
| B5 | 0.634 |
| B6 | 2.08 |
| B7 | 0.619 |
| B8 | 0.913 |
| B9 | 2.45 |
| B10 | 2.37 |
| B11 | 1.11 |
| B12 | 1.27 |
| B13 | 1.27 |
| B14 | 2.79 |
| B15 | 0.809 |
| B16 | 1.18 |
| B17 | 0.869 |
| B18 | 0.762 |
| B19 | 1.83 |
| B20 | 0.313 |
| B21 | 1.57 |
| B22 | 1.22 |
